# Among all 310,000 compounds or so, about 2,200 (0.71%) showed an effect of 50% or more. Effects have a minus sign here. This is one part of the list. *1 amine or outer side, *2 acyl side, *3 side chain or, on linkers, in order; H or OH if unused. Where a SMILES comes first, the peptide text is derived from it. Bridges are numbered along the chain shown (N, C = ends). [ ]: non-standard residue; d: D form. ξ: configuration not given here. hSer(Ph(2-I,4-NO2,6-CO)) = O=C([C@H](CCOc1c(I)cc([N+](=O)[O-])cc1C(=O)[*:3])N[*:1])[*:2]; ξD = NC(CC(=O)O)C(=O)O
# Molecular target: human ether-à-go-go-related gene (hERG) potassium channel (human, UniProt Q12809)
# Experiment: primary screen, population patch clamp on CHO cells stably expressing hERG
# human ether-à-go-go-related gene (hERG) potassium channel, sequence (Q12809 whole entry, looked up): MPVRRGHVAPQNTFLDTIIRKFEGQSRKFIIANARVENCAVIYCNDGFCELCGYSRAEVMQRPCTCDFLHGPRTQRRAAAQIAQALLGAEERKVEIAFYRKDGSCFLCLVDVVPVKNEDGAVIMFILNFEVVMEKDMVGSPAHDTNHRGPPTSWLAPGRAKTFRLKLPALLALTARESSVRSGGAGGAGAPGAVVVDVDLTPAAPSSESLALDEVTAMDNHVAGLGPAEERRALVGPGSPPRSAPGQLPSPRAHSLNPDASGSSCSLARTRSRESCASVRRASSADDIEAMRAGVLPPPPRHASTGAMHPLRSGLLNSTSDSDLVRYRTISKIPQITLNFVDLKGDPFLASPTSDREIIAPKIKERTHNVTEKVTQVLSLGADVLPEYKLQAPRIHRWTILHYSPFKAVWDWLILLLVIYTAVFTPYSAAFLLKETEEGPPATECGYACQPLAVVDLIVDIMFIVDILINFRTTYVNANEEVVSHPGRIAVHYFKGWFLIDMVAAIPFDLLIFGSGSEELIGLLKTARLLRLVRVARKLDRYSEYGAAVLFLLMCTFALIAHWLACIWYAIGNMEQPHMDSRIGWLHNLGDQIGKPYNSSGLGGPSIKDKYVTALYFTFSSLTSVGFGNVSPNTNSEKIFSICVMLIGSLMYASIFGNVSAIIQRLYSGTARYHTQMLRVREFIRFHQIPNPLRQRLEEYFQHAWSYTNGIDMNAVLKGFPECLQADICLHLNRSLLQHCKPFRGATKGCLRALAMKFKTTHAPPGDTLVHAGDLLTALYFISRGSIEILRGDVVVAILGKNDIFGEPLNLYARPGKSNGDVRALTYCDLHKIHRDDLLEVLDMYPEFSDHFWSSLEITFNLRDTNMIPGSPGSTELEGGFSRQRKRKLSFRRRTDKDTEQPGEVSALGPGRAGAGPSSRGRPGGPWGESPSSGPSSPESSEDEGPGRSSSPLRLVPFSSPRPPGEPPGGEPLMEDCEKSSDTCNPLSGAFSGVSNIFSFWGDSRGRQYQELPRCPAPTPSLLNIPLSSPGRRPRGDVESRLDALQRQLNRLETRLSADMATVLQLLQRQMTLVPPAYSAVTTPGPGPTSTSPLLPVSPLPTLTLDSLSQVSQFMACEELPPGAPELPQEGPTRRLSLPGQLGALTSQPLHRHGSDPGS
row,SMILES,"hERG current change (%, negative = inhibition) at 1uM"
1,Nn1cc(-c2ccccc2)nc1SCC(=O)N1CCN(S(=O)(=O)c2ccc3ccccc3c2)CC1,0.0218%
2,O=C(NCC(=O)N1CCCC1)c1ccccc1F,14.6%
3,Cc1ccn2cc(CSc3ccccc3)nc2c1,3.94%
4,CCOc1ccc(C(=O)N(Cc2ccc(OC)cc2)Cc2cc3cc(OC)ccc3[nH]c2=O)cc1,-3.38%
5,Cc1cccc(OCC(=O)N/N=C/c2ccc(N(C)C)cc2)c1,-2.37%
6,CNc1nc(Nc2ccc(Br)cc2)nc(N)c1[N+](=O)[O-],10%
7,COC(=O)Cc1csc(N)n1.Cl,8.39%
8,CCOc1ccccc1N(CC(=O)Nc1ccc(S(=O)(=O)N2CCOCC2)cc1)S(C)(=O)=O,6.93%
9,c1ccc2sc(NC3=NCN(C4CCCCC4)CN3)nc2c1,-8.87%
10,COc1ccc(-c2nnc(SCC(C)C)o2)cc1,13.3%
11,COc1ccc(N2CCC(CNC(=S)Nc3cccc(OC)c3)C2)cc1 (centres unmarked),8.46%
12,O=C(COC(=O)c1n[nH]c2ccccc12)NCCc1ccc(Cl)cc1,7.88%
13,CCOC(=O)C1CCCN(C(=O)Cn2nc(C)c3c(C)n(-c4ccccc4)nc3c2=O)C1 (centres unmarked),12.7%
14,O=C(CC1C(=O)NCCN1Cc1cccc(C(F)(F)F)c1)NCCc1cnccn1 (centres unmarked),15.7%
15,O=C(NCCCn1ccnc1)c1cc(C(=O)C2CC2)c[nH]1,12.4%
16,COc1ccc(OC)c(Cc2nnc(CCC(=O)NC3C4CC5CC(C4)CC3C5)o2)c1 (centres unmarked),3.34%
17,CC1(c2ccccc2)CC(C)(C)N2C(=O)/C(=C3\SC(=S)NC3=O)c3cccc1c32 (centres unmarked),2.4%
18,CCCCCCNS(=O)(=O)c1ccc(OC)c(OC)c1,-2.33%
19,Cc1cc2ncn(/N=C/c3cccnc3)c2cc1C,3.9%
20,O=C(Cc1ccsc1)NNC(=O)c1ccc(F)cc1,-14%
21,CS(=O)(=O)N1CCN(c2ccc(NC(=O)c3ccc(-c4ccc(Cl)cc4)o3)cc2)CC1,-0.334%
22,N#Cc1cccc(S(=O)(=O)NCC(=O)OCC(=O)c2ccc[nH]2)c1,1.14%

row,SMILES,"hERG current change (%, negative = inhibition) at 1uM"
1,CCc1c(C)c2ccc(OCC(N)=O)cc2oc1=O,3.26%
2,Br.O=C(CN1C2=NCCN2c2ccccc21)c1ccc2c(c1)OCO2,-42.1%
3,Cn1ncc(Cl)c1C(=O)N1CCN(c2ccc(F)cc2)CC1,17.5%
4,O=C(COc1ccc(Cl)cc1Cl)NNC(=O)c1cccnc1,17.6%
5,Cc1ccc(NS(=O)(=O)c2cccc(C(=O)NCc3ccccn3)c2)cc1,-47%
6,CC1Sc2ccc(S(=O)(=O)CCC(=O)N3CCN(c4ccccc4F)CC3)cc2NC1=O (centres unmarked),8.74%
7,O=C1C2C3C=CC(C3)C2C(=O)N1c1ccccc1OS(=O)(=O)c1ccccc1 (centres unmarked),10%
8,CCC(=O)Nc1c(-c2ccc(Cl)cc2)c(=O)c2ccccc2n1C,9.36%
9,CCn1cnc2c1c(=O)n(Cc1csc(-c3ccccc3)n1)c(=O)n2Cc1ccccc1,3.7%
10,O=C(Nc1ccc(CSc2ccccc2)cc1)c1ccco1,8.68%
11,CCCSC1=N/C(=C\c2ccc3c(c2)OCO3)C(=O)S1,6.42%
12,CSCC[C@H](NC(=O)N1CCn2c1nc1ccccc12)C(=O)NCc1ccc(F)cc1,-13.2%
13,Cc1cc(=O)oc2cc(OCC(=O)N3C[C@H]4C[C@@H](C3)c3cccc(=O)n3C4)c(Cl)cc12,13.8%
14,Cn1cc([N+](=O)[O-])c(C(=O)N(Cc2ccccc2)Cc2ccccc2)n1,3.39%
15,NC(=O)COC(=O)c1cc(S(=O)(=O)N2CCN(c3ccccc3)CC2)ccc1Cl,13.2%
16,O=C(c1cccc(N2C(=O)C3C4C=CC(C4)C3C2=O)c1)N1CCCCCC1 (centres unmarked),-5.07%
17,COc1ccccc1N1CCN(C(=O)c2ccc3[nH]c(C)c(C)c3c2)CC1,20.1%
18,CN1CCN(c2nc3ccccc3nc2C(C#N)C(=O)OC2CCCCC2)CC1 (centres unmarked),-27.7%
19,Cc1cc(C(=O)Nc2cccc(S(=O)(=O)N3CCCCC3)c2)c2ccccc2n1,7.45%
20,COc1ccc(S(=O)(=O)n2nc(OC(=O)c3ccccc3)cc2N)cc1,5.14%
21,Cc1c(C(=O)Nc2ccc(S(=O)(=O)N(C)C3CCN(C)CC3)cc2)oc2c(Cl)cccc12,11.6%
22,CCN(Cc1ccccc1)C(=S)NC(=O)c1ccccc1Br,13.6%

row,SMILES,"hERG current change (%, negative = inhibition) at 1uM"
1,CCOC(=O)c1ccc(CNC(=O)Cn2nnc(-c3ccccc3)n2)o1,5.45%
2,O=C(O)CCSCCC(=O)O,14.3%
3,Cc1c(NS(=O)(=O)c2ccc(NC(=O)CCC(=O)O)cc2)c(=O)n(-c2ccccc2)n1C,6.21%
4,COc1ccc(N2CCN(C(=O)c3ccc(COc4ccc5c(C)cc(=O)oc5c4)cc3)CC2)cc1,6.18%
5,COC(=O)c1c(NC(=O)CN2C(=O)NC3(CCC(C(C)(C)C)CC3)C2=O)sc2c1CCCCC2 (centres unmarked),13.5%
6,O=C(CCOc1ccccc1)OCC(=O)c1cc2ccccc2o1,-1.07%
7,CCn1c(SCC(=O)NCc2ccco2)nnc1C1CCCC1,16.6%
8,CC(C(=O)NN)n1nnc(N2CCOCC2)n1 (centres unmarked),9.87%
9,CC(=O)Oc1cccc(N2C(=O)C3C4C=CC(C4)C3C2=O)c1 (centres unmarked),9.76%
10,Nc1cc(OCC(F)(F)F)cc(OCC(F)(F)F)c1,7.24%
11,O=C(Nc1ccnc(-c2cccnc2)n1)c1ccccc1Cl,4.52%
12,COc1cccc(NC(=O)CCN2C(=O)c3cccc([N+](=O)[O-])c3C2=O)c1,1.59%
13,O=S(=O)(c1ccc(F)cc1)n1ccc2cccnc21,5.64%
14,CC1(C)Cc2nc3sc4c(SCC(=O)NCc5ccccc5)ncnc4c3cc2CO1,1.68%
15,C=CCn1c(SCc2ccc(C#N)cc2)nnc1-c1ccc(C)cc1,-37.5%
16,COC(=O)c1ccc(COC(=O)c2cnccn2)cc1,13%
17,O=C(COC(=O)c1ccc(O)cc1)NC(=O)NCc1ccccc1,10.1%
18,CC(CNC(=O)COc1ccccc1)OC(=O)Nc1cccc(Cl)c1 (centres unmarked),1.13%
19,COc1ccccc1CNS(=O)(=O)c1ccc2[nH]cc(C(=O)O)c(=O)c2c1,19.1%
20,Cc1nc2ccccc2n1S(=O)(=O)c1ccc(Br)cc1,6.42%
21,Fc1ccccc1CN1CCCC(NC2CCC2)C1 (centres unmarked),12.1%
22,CCc1nnc(NC(=O)c2nc(S(=O)(=O)Cc3ccc(C)cc3)ncc2Cl)s1,14.6%

row,SMILES,"hERG current change (%, negative = inhibition) at 1uM"
1,Cc1ccc(C(=O)Nc2cc(S(=O)(=O)N3CCOCC3)ccc2N2CCCC2)cc1,8.64%
2,Cc1ccc(C(=O)C2=C(O)C(=O)N(c3ncccn3)C2c2ccc(Br)cc2)o1 (centres unmarked),12.7%
3,COc1ccc(NC(=O)CSc2cccc3cccnc23)c(OC)c1,-2.28%
4,CC(C)C1OC(c2cccc(NC(=O)c3cccs3)c2)OCC1(C)C (centres unmarked),13.5%
5,COc1ccc(C)cc1S(=O)(=O)N(C)CC(=O)N1CCCCC1,7.86%
6,O=C(COC(=O)c1cnccn1)Nc1ccc2c(c1)OCO2,8.05%
7,O=S(=O)(c1cccs1)n1cccn1,3.88%
8,COc1ccc(C(=O)OCC(=O)NC(=O)NCc2ccccc2)cc1[N+](=O)[O-],12.9%
9,CC(=O)N1c2ccc(S(=O)(=O)NCCC(=O)NCCc3ccc(C)cc3)cc2CC1C (centres unmarked),4.46%
10,O=C(NCC1CCCCC1)c1cccc([N+](=O)[O-])c1,11.4%
11,Cc1ccc(-c2cc(C(F)F)n3ncc(C(=O)N4CCN(c5cccc(C)c5C)CC4)c3n2)cc1,7.8%
12,O=C(Nc1cnccn1)Nc1ccccc1Cl,4.72%
13,CCN(CC)S(=O)(=O)c1ccc(C)c(NC(=O)COC(=O)[C@@H]2CCCN2C(=O)c2cccs2)c1,7.15%
14,OCC1(Cc2ccccc2C(F)(F)F)CCN(Cc2cccc3cnccc23)CC1,4.24%
15,Cc1nnc(NC(=O)c2oc3c(ccc4ccccc43)c2C)s1,16.7%
16,CCOC(=O)Cc1csc(NC(=O)Nc2ccc(F)cc2)n1,14%
17,CCC1(c2ccccc2)NC(=O)N(CC(=O)Nc2cc(S(=O)(=O)N3CCOCC3)ccc2OC(C)C)C1=O (centres unmarked),4.54%
18,Cn1c(-c2c(N)n(-c3ccccc3)c3nc4ccccc4nc23)nc2ccccc21,8.79%
19,C/C(=N\NC(=O)C1CC1)c1ccc(NC(=O)c2ccc(Br)o2)cc1,15.5%
20,"NC(=O)C(CC(=O)O)NC(=O)[C@@H]1CCOc2c(I)cc([N+](=O)[O-])cc2C(=O)N[C@@H](CO)C(=O)N[C@@H](Cc2ccc(O)cc2)C(=O)N1 (some centres unmarked) (SY[hSer(Ph(2-I,4-NO2,6-CO))][ξD]-NH2; lactam N-3)",-1.41%

# — paper PMC4336329 (PLoS ONE, 2015)
